# Measured values from PubChem BioAssay AID1347120 (National Center for Advancing Translational Sciences (NCATS), 2019).
# Where “and” joins values, the source holds several entries; their conditions need not be identical. Equal values may be shown once. The whole screen tested about 390,000 compounds, of which about 930 (0.24%) were called active. The shares of active, inactive and inconclusive entries below differ from those in the screen. The call rests on the fitted dose curve; in most records, active means well fitted activation curve with a large enough effect; inconclusive means small, poorly fitted or top-dose-only effect; inactive means no such curve, though single readings can be large or run the other way. Potencies beside an inconclusive call are fits to weak or partial responses and may not hold up.
# Assay: qHTS for Suppressors of FUS Proteinopathy: Primary screen using FUS-linked yeast assay; further: nearly all actives have a fitted effect of over 55% in size;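 on growth rescue (activation): plate controls were DMSO vehicle for no effect and reference control for full effect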
# Conditions: S. cerevisiae FUS-expressing, OD600, 24 h; Potency: growth rescue; growth rescue (activation): at 76.6 µM (top of the series)
# Method in brief: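 Cultures pregrown in 2.5% raffinose medium are shifted to minimal medium containing 2% galactose to express toxic FUS. Compounds are tested at several concentrations. After 24hr at 30C, growth is quantified at 600 nm absorbance.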
# Potency means the concentration at half of the fitted maximal effect; tags describe the fitted curve by direction and shape.
Compound,Potency,growth rescue (activation)
CCCNC(=S)N1CCN(C(c2ccccc2)c2ccccc2)CC1,"inconclusive: 8.91 µM [activator, partial curve]",
Cc1ccc(NC(=O)C2CCCN(c3nnc(-n4cccc4)s3)C2)c(C)c1 (stereo unspecified),inactive,
CC1=Nc2cc(C(=O)NCc3ccco3)ccc2Sc2ccc(C)cc21,"inconclusive: 35.5 µM [activator, partial curve, poor fit]",
O=C(Nc1cc(Sc2ccccn2)cc([N+](=O)[O-])c1)c1cccc(Cl)c1,inactive,
CC1=C(C(=O)OCc2ccccc2)C(c2cccnc2)c2c(n(C)c(=O)n(C)c2=O)N1 (stereo unspecified),,inconclusive: 91.3% [activator]
O=C(Cn1c(=O)n(Cc2ccco2)c(=O)c2sc3ccccc3c21)Nc1ccccc1C(F)(F)F,inactive,
Cc1nn(-c2ccccc2)c(Cl)c1/C=N/Nc1ccc(S(=O)(=O)Nc2ccccc2C(=O)O)cc1[N+](=O)[O-],"inconclusive: 25.1 µM [activator, single point]",
COc1ccc(Br)c(Cn2c(C)c(C(=O)NCc3cccc([N+](=O)[O-])c3)sc2=O)c1,"inconclusive: 31.6 µM [activator, single point]",
CC(=O)C1=CCC(c2ccc(Cl)cc2)N(S(=O)(=O)c2ccc(C)cc2)C1 (stereo unspecified),"inconclusive: 22.4 µM [activator, partial curve, poor fit]",
C1=Nc2c(NCc3ccccc3)ncnc2Oc2ccccc21,"inconclusive: 22.4 µM [activator, partial curve]",
COCCn1c(Cc2ccccc2)nnc1SCc1ccc([N+](=O)[O-])cc1,"inconclusive: 5.01 µM [activator, full curve, poor fit]",
Cc1ccc(-n2nc(C)c3c(C)c(CCC(=O)NCc4ccccc4Cl)c(C)nc32)cc1,inactive,
O=C(C1CCN(S(=O)(=O)c2c(Cl)cccc2Cl)CC1)N1CCCCCCC1,"inconclusive: 25.1 µM [activator, single point]",
O=C(CSc1ccccn1)Nc1nncs1,"inconclusive: 50.1 µM [activator, single point]",
COc1cc(C(=S)N2CCCC2)ccc1OS(=O)(=O)c1ccc(NC(C)=O)cc1,"inconclusive: 7.94 µM [activator, partial curve]",
COc1ccc(S(=O)(=O)N(C)C[C@H]2Oc3ccc(NC(=O)Nc4ccccc4)cc3C(=O)N([C@H](C)CO)C[C@@H]2C)cc1,"inconclusive: 28.2 µM [activator, single point]",
Cc1ccc(CCNS(=O)(=O)c2ccc3c(c2)CCN3C(=O)CCC(=O)O)cc1,inactive,
Oc1ccc(C[C@@H](CN2CCCC2CN2C(=S)NC[C@@H]2Cc2ccccc2)N2C[C@H](Cc3ccccc3)N(CC3CCCCC3)C2=S)cc1 (stereo partly specified),"inconclusive: 20 µM [activator, partial curve, poor fit]",
Cc1nc2ccccn2c1C(=O)/C=C/c1cccc([N+](=O)[O-])c1,inactive,
C[C@@H]1CN([C@@H](C)COC(=O)C(C)(C)C)C(=O)c2cc(NC(=O)Nc3ccccc3)ccc2O[C@@H](C)CCCCO[C@H]1CN(C)S(=O)(=O)c1ccc(F)cc1,"inconclusive: 20 µM [activator, partial curve, poor fit]",
c1ccc2c(c1)CCN2CCN1CCc2ccccc21,"inconclusive: 3.98 µM [activator, full curve]",

Compound,Potency,growth rescue (activation)
Cc1cccc(N2CCN(C(=O)CCCn3ncn4c(cc5occc54)c3=O)CC2)c1C,inactive,
COc1ccccc1N1CCN(c2nc3ccccc3nc2C(C#N)C(=O)OC(C)C)CC1 (stereo unspecified),"inconclusive: 7.94 µM [activator, partial curve, poor fit]",
Cc1ccc(-c2cc(C(=O)Nc3ccc(S(=O)(=O)Nc4nccs4)cc3)c3ccccc3n2)c(C)c1,"inconclusive: 12.6 µM [activator, partial curve]",
Cc1ccc2ccc3cc(C(=O)Nc4ccc(C)c(F)c4)nc3c2[nH]1,inactive,
CC1=C([N+](=O)[O-])C(c2cccc(Br)c2)C2=C(N1)c1ccccc1C2=O (stereo unspecified),"inconclusive: 28.2 µM [activator, partial curve]",
CC(C)C[C@H](NC(=O)c1nc[nH]c1C(=O)N1CCN(c2ccccc2)CC1)C(=O)OCc1ccccc1,"inconclusive: 28.2 µM [activator, partial curve, poor fit]",
O=C(CCc1nc2ccccc2s1)N1CCN(c2ccccc2)CC1,inactive,
NC(N)=N/N=C/c1ccc(OCc2ccccc2)cc1,"inconclusive: 11.2 µM [activator, partial curve]",
C=CCn1c(SCC(C)=O)nnc1-c1cc(-c2ccccc2)sc1N,"inconclusive: 15.8 µM [activator, partial curve, poor fit]",
CC1CCN(c2ccc(C(=O)NCc3ccco3)cc2[N+](=O)[O-])CC1,"inconclusive: 5.62 µM [activator, single point]",
O=C(CSc1nncc2ccccc12)N1CCOCC1,inactive,
CCCCCNC(=O)C(c1ccc(OC)cc1)n1c(=O)c(-c2ccco2)nc2ccccc21 (stereo unspecified),"inconclusive: 31.6 µM [activator, partial curve, poor fit]",
COc1ccc(Cl)cc1NC(=O)CN1C(=O)CSc2ccc(S(=O)(=O)N3CCCC3)cc21,"inconclusive: 35.5 µM [activator, partial curve, poor fit]",
Cc1cccc(N2CCN(C(=O)/C=C/c3cccs3)CC2C)c1 (stereo unspecified),inactive,
COc1ccccc1N1C(=O)[C@@H]2[C@H](C1=O)[C@H](C(=O)c1ccc(OC(C)=O)cc1)N1N=CC=C[C@@H]21,"inconclusive: 28.2 µM [activator, single point]",
O=C(C1CC1)N1CCc2cc(Br)cc(S(=O)(=O)NCc3ccc4c(c3)OCO4)c21,"inconclusive: 50.1 µM [activator, single point]",
Cn1cccc1Cc1nnc(SCC(=O)Nc2ccc(F)cc2)n1-c1ccc(F)cc1,"inconclusive: 17.8 µM [activator, partial curve]",
CCOc1ccc(NC(=O)CC2C(=O)N(c3cccc(C)c3)C(=O)N2CCC2=CCCCC2)cc1 (stereo unspecified),active: 35.5 µM,
COc1ccc(-c2sc3cc(OC)ccc3c2-c2ccc(OCCN3CCOCC3)cc2)cc1,"inconclusive: 28.2 µM [activator, partial curve, poor fit]",
Cc1cccc(NC(=O)C2CCN(S(=O)(=O)c3c(C)noc3/C=C/c3ccco3)CC2)c1C,"inconclusive: 22.4 µM [activator, partial curve]",
CCN(C(=O)C(C)N1C(=O)/C(=C/c2ccco2)SC1=S)C1CCS(=O)(=O)C1 (stereo unspecified),"inconclusive: 11.2 µM [activator, partial curve, poor fit]",

Compound,Potency,growth rescue (activation)
COc1cc(NC(=O)C2CC(c3cccc(OC)c3OC)=NO2)cc(OC)c1OC (stereo unspecified),inactive,
CSc1cccc(NC(=O)N2CCN(S(=O)(=O)c3ccc4c(ccn4C)c3)CC2)c1,"inconclusive: 12.6 µM [activator, partial curve, poor fit]",
COc1ccc2c(CNCCc3ccccc3OC)c(C(=O)O)n(Cc3ccc(F)cc3Cl)c2c1,"inconclusive: 50.1 µM [activator, single point]",
COC(=O)[C@]12C[C@H](CC(=O)NCc3cccc(C(F)(F)F)c3)C(=O)N(Cc3ccco3)C1=C[C@H](C(C)C)O[C@@H]2C1CC1,"inconclusive: 11.2 µM [activator, partial curve]",
O=C(Cn1cccc1C(=O)c1ccccc1)NCc1cccc(Cl)c1,"inconclusive: 17.8 µM [activator, single point]",
CCc1cc[n+](C2=C([O-])c3ccccc3C(=O)/C2=N\S(=O)(=O)c2cccs2)cc1,"inconclusive: 20 µM [activator, partial curve, poor fit]",
COc1ccc(C2=NS(=O)(=O)N(C)C(C(=O)NC(C)c3ccccc3)=C2)cc1OC (stereo unspecified),"inconclusive: 25.1 µM [activator, single point]",
CCOc1ccc(-c2nnc3ccc(SC(C)C)nn23)cc1,inactive,
O=C1CC(c2ccccc2)Oc2cc(O)ccc21 (stereo unspecified),inactive,
O=S(Cc1ccccc1)Cc1ccccc1,inactive,
O=C(O)COc1ccccc1/C=N/NC(=O)c1cc(-c2ccc(F)cc2)nc2ccccc12,inactive,
CCC(C)Sc1cccc(-c2nc3cc(C)ccn3c2NCc2ccccc2)c1 (stereo unspecified),"inconclusive: 34.3 µM [activator, single point] and inconclusive: 22.4 µM [activator, partial curve, poor fit]",
Cc1cc(=O)oc2cc(OCc3ccc(S(=O)(=O)N4CCOCC4)cc3)ccc12,"inconclusive: 17.8 µM [activator, partial curve]",
Cc1cccc(-c2cc(N)n(-c3ccccc3)n2)c1,inactive,
CN1CCc2c(sc3c2c(=O)n(-c2ccccc2)c2n[nH]c(=S)n32)C1,"inconclusive: 11.2 µM [activator, partial curve]",
CC(=O)Nc1cccc(C(=O)N2CCN(S(=O)(=O)c3ccc(C4CCCCC4)cc3)CC2)c1,"inconclusive: 7.94 µM [activator, partial curve]",
Cc1cccc(NC(=S)NCc2ccc3c(c2)cc(C)n3C)c1C,"inconclusive: 25.1 µM [activator, single point]",
O=C(OCC1CCCO1)c1ccc2c(c1)N(Cc1cccc(F)c1)C(=O)c1ccccc1S2(=O)=O (stereo unspecified),"inconclusive: 12.6 µM [activator, single point]",
Cc1c(CCC(=O)NCCCCCC(=O)O)c(=O)oc2cc3occ(-c4ccccc4)c3cc12,"inconclusive: 20 µM [activator, single point]",
